“And” between values parts separate entries of the source, which are not always exact repeats. Equal values may be shown once. About 620 (0.23%) of roughly 270,000 compounds were called active. The inconclusive results got no clear call from the source; some entries with a clear call stand among them for comparison. The call rests on the fitted dose curve; in most records, active means well fitted inhibition curve with a large enough effect in the polarisation, with a control signal flat (not every such curve was filed as active); inconclusive means small, poorly fitted or top-dose-only effect, or effect the other way, or a change in a side signal; inactive means no such curve, though single readings can be large or run the other way; the % refers to the polarisation. Where the call is inconclusive, the potency comes from a doubtful curve fit. “Side channel” marks fits to a control or component signal instead of the main read-out.
Molecular target: Menin (Homo sapiens) (UniProt O00255)
Assay: qHTS Assay for Inhibitors Targeting the Menin-MLL Interaction in MLL Related Leukemias: Competition With Texas Red Labeled MLL-derived Mutant Peptide; on FP activity change, negative = inhibition: % of control where 0% means no effect
Settings: fluorescence polarization; FP activity change, negative = inhibition: at 61.6 µM (top of the series)
Potency means the concentration at half of the fitted maximal effect; tags describe the fitted curve by direction and shape or compound fluorescence and quenching.

UniProt O00255, sequence (O00255 whole entry, looked up): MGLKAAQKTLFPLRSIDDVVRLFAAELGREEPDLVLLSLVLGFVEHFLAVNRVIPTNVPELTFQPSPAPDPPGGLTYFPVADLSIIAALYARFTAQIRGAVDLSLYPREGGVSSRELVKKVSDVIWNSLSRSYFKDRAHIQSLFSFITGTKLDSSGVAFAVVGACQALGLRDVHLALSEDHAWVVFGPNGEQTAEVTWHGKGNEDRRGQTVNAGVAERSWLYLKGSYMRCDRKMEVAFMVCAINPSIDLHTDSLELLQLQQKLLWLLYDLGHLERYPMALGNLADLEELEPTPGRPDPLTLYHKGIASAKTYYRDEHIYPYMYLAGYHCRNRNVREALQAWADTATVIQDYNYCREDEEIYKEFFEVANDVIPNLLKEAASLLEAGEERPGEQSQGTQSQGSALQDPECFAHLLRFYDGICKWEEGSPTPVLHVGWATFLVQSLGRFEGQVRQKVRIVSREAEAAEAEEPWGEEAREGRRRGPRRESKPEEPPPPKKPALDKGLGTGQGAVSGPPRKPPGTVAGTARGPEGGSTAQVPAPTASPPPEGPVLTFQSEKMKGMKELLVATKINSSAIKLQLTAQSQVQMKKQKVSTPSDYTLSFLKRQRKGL

Structure (SMILES) | Potency | FP activity change, negative = inhibition
CCC(=O)N1CCCC(C(=O)c2ccc(-c3ccccc3)cc2)C1 (stereo not given) | inconclusive: 10 µM [inhibitor, partial curve] | 
Cc1cc(NC(=O)Nc2ccc3c(ccn3C)c2)sn1 | inconclusive: 14.1 µM [quencher, side channel, partial curve] and inconclusive: 12.6 µM [quencher, side channel, partial curve] | 
N#CCCn1c(=O)cnc2cnc(N3CCNCC3)nc21 | inconclusive: 39.8 µM [quencher, side channel, single point] | 
CC(C)(C)OC(=O)NC(=NCCCc1cn(CC(=O)N2CCN(C(=O)OC(C)(C)C)CC2)nn1)NC(=O)OC(C)(C)C | inconclusive: 3.55 µM [fluorescent, side channel, full curve] | 
CCCCCCNC(=O)Nc1ccc(S(=O)(=O)Nc2ccc(CCNC[C@H](O)COc3ccc(O)cc3)cc2)cc1 | inactive | 
CN(C)S(=O)(=O)Oc1ccsc1C(=O)Nc1ccc(Cl)cc1 | inconclusive: 20 µM [quencher, side channel, single point] | 
Cc1ccc2cc(C#N)c(SCc3nnc(-c4ccccc4[N+](=O)[O-])o3)nc2c1 | inconclusive: 28.2 µM [quencher, side channel, single point] | 
O=C(Nc1cc(Sc2ccccn2)cc([N+](=O)[O-])c1)c1cccc(F)c1 | inconclusive: 11.2 µM [quencher, side channel, partial curve] | 
CCCCc1cc(=O)oc2c3c(cc(OCC(=O)NCCCO)c12)OC(C)(C)CC3 | inconclusive: 31.6 µM [fluorescent, side channel, partial curve] | 
CCOC(=O)N/N=C1/C[C@@H](O)[C@@H](O)[C@@H]2[C@H]3C(=O)N(c4ccc(F)cc4F)C(=O)[C@@H]3CC[C@H]12 |  | inactive: 19.2% [at 11.7 µM]
O=S(=O)(Nc1ccc2c(c1)OCCO2)c1ccc2oc3ccccc3c2c1 | inconclusive: 35.5 µM [inhibitor, single point] | 
O=C(O)c1cc2ccccc2c(Cc2cc3ccccc3c(C(=O)O)c2O)c1O (tested in a mixture with another compound) | inconclusive: 14.1 µM [quencher, partial curve] | 
COc1ccc(/C=C2/SC(=O)N(NS(=O)(=O)c3ccccc3)C2=S)cc1OC | inconclusive: 28.2 µM [quencher, side channel, single point] | 
O=C(Nc1ccccc1-c1nnc(SCc2ccc(Cl)cc2)o1)c1ccccc1 | inactive | 
COc1ccc2nc(NC(=O)c3ccc4ncsc4c3)sc2c1 | inconclusive: 12.6 µM [quencher, side channel, partial curve] | 
Brc1ccc(-c2csc3ncnc(-n4nnc5ccccc54)c23)cc1 | inconclusive: 28.2 µM [inhibitor, single point] | 
NS(=O)(=O)c1ccc(Cc2ncc(C(F)(F)F)cc2Cl)s1 | inactive | 
O=C(CSc1nc2ccc(NC(=O)CSc3nnnn3Cc3ccccc3)cc2s1)Nc1ccccc1 | inconclusive: 28.2 µM [inhibitor, single point] | 

Structure (SMILES) | Potency | FP activity change, negative = inhibition
CC(C)=NOc1cc(NC(=O)CCl)cc([N+](=O)[O-])c1 | inconclusive: 39.8 µM [quencher, side channel, single point] | 
CCOC(=O)c1ccc(NC(=O)CN2C(=O)CSC2=O)cc1 | inconclusive: 28.2 µM [quencher, side channel, single point] | 
Cc1cccc(NC(=O)CN2C(=O)S/C(=C\c3cccn3-c3cccc(C(=O)O)c3)C2=O)c1 | inconclusive: 12.6 µM [quencher, side channel, partial curve] | 
O=C(C[n+]1cc(Br)cc2ccccc21)c1ccc(F)cc1 | inconclusive: 11.2 µM [inhibitor, partial curve] | 
c1cncc(-c2cncnc2NCc2cccs2)c1 | inconclusive: 5.62 µM [inhibitor, single point] | 
Cc1ccccc1Cn1c(CN2CCc3ccccc3C2)nc2c1c(=O)n(C)c(=O)n2C | inconclusive: 5.01 µM [fluorescent, side channel, full curve, poor fit] | 
C#CCN1C(=O)S/C(=C/c2cc(C)n(CC)c2C)C1=O | inconclusive: 12.6 µM [inhibitor, partial curve] | 
COc1ccccc1CNCC(O)(c1ccc(Cl)cc1)c1ccc(Cl)cc1 | inconclusive: 14.1 µM [inhibitor, partial curve] | 
COc1ccc(-n2c(SCC(=O)NCC3CCCO3)nc3n[nH]c(C)c3c2=N)cc1 (stereo not given) | inconclusive: 3.16 µM [inhibitor, partial curve] | 
CCOc1cc(/C=N/NC(=O)c2cccc([N+](=O)[O-])c2)ccc1OS(=O)(=O)c1ccccc1 | inconclusive: 7.94 µM [quencher, side channel, full curve] | 
COc1ccc(Br)c(/C=N/NC(=O)COc2ccc(-c3ccccc3)cc2)c1 | inconclusive: 39.8 µM [fluorescent, single point] | 
CCC(C(=O)NC1CCCCC1)n1c(SCc2ccccc2F)nc2ccncc21 (stereo not given) | inactive | 
CCc1cc2c(=O)c(Oc3ccccc3F)c(C)oc2c(CN(C)C)c1O | inactive | 
O=C(Nc1ccccc1F)Nc1cccc2ccc(O)cc12 | inconclusive: 11.2 µM [quencher, side channel, partial curve] | 
COc1ccccc1NC(=O)CSc1nc2c(sc3ccccc32)c(=O)n1CCN(C)C | inconclusive: 3.16 µM [fluorescent, side channel, full curve] | 
COC(=O)c1ccc(Oc2nc(NC(C)C)nc(N(C)C)n2)cc1 | inconclusive: 22.4 µM [fluorescent, side channel, partial curve] | 
Cc1cc2oc(C(=O)Nc3ccc(S(=O)(=O)Nc4nccs4)cc3)cc(=O)c2cc1Cl | inconclusive: 10 µM [quencher, side channel, partial curve] | 

— PubChem BioAssay AID1768 (National Center for Advancing Translational Sciences (NCATS), 2009)
